Measurements as given in PMC7904734, “ORP/Osh mediate cross-talk between ER-plasma membrane contact site components and plasma membrane SNAREs” (Cellular and Molecular Life Sciences: CMLS, 2020).
No constants are given. Whether binding was seen depends on the method and setting. Binding seen in cells or lysates may run through a third protein. Some results given as binding are weak or reduced against the parent protein; the word gives no strength. Where a sequence is shown, tags or fusion partners need not be part of it.

Sequences of proteins named here, by UniProt entry; tags and fusion partners are left off. A change or cut given only in a name is not applied to a line headed by its entry. Residues count along the entry.
UniProt P40357: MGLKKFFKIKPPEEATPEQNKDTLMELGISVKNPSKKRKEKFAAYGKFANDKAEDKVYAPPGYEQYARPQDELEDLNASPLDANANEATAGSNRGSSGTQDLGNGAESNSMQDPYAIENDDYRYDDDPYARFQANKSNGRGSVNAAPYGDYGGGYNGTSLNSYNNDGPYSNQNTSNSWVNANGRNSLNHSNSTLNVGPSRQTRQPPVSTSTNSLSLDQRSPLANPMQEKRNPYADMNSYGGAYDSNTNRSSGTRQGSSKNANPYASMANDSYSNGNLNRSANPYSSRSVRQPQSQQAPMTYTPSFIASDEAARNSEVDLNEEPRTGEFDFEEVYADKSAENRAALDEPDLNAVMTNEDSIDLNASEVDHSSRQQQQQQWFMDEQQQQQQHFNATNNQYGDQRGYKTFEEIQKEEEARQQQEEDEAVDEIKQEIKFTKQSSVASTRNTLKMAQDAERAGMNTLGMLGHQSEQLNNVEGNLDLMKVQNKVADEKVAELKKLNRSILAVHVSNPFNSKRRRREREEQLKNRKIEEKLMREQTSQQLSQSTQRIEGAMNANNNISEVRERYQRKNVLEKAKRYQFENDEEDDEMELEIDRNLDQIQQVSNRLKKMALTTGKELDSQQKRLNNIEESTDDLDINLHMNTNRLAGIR
YFP(C)·Sec9p(1–420): residues 1-420 of P40357
YFP(C)·Sec9p(421–651): residues 421-651 of P40357

Columns and labels:
[1] = molecular target: T1, YFP(C)·Scs2p (S. cerevisiae) (UniProt P40075); experiment: split reporter; BiFC in living sec9-4 Δpep4 yeast cells (Y39) at the permissive temperature; Osh3p level restored
T1 sequence: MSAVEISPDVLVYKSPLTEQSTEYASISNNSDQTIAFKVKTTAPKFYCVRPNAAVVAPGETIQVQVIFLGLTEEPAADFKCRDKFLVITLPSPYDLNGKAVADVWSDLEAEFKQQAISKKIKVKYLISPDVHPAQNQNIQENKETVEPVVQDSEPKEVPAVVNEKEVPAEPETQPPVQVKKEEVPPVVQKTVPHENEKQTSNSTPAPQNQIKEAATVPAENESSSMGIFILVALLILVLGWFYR

[2] = molecular target: T1, YFP(C)·Scs2p (S. cerevisiae); experiment: split reporter; BiFC of YFP(N) and YFP(C) fusions in living wild type yeast cells grown at 24 °C, fluorescence microscopy; also in exocytosis mutants other than sec9-4 and with OSH3 overexpression (signals enhanced)
[3] = molecular target: YFP(C)·Sec9p(1–420) (S. cerevisiae) (UniProt P40357); experiment: as above
[4] = molecular target: YFP(C)·Sec9p(421–651) (S. cerevisiae) (UniProt P40357); experiment: as above
[5] = molecular target: YFP(C)·Sec9p (S. cerevisiae) (UniProt P40357); experiment: as above

B1: YFP(N)·Osh3p (protein, UniProt P38713 1-996)
chain: METIDIQNRSFVVRWVKCGRGDVINYQIKPLKKSIEVGIYKKLKSSVDDHASAVHIAPDTKTLLDYTTKSLLHKGSSSNIEEHHRRSSQHSHSSSNGSDNKRKERSYSSLSISGIQQQSQEIPLREKLSASGFTLVKRVGNVSGNTMVQGDLEVKDTDYYYAFILDNSSSKNAKKKILFNASVINGDNQSMISTRSTPPARPTALSRTSTQQDMLFRVGQGRYLQGYLLKKRRKRLQGFKKRFFTLDFRYGTLSYYLNDHNQTCRGEIVISLSSVSANKKDKIIIIDSGMEVWVLKATTKENWQSWVDALQTCFDDQFEDKDTSTLEENPDILDDDKEVINKSSPQDHDHLTPTATTKSALSHRQHTQKDMDDIYVPLPSESYATFSMNLRLIQQRLEQCKKDSLSYKPTTLHQRSEGLNGTHSSSSVFTNNRVSSFNHSSSGMTSSDSLASEEVPSNKTYIEHALYNQLADLEVFVSRFVTQGEVLFKDHQILCKKAKDTRVSLTSYLSENDEFFDAEEEISRGVIILPDTEDDINNIVEETPLLGKSDQNEFTKEVQLSGSEQIASSSVESYTTNDENHSRKHLKNRHKNRRRGHPHHQKTKSAQSSTETFTSKDLFALSYPKSVTRRNDIPEAAASPPSLLSFLRKNVGKDLSSIAMPVTSNEPISILQLISETFEYAPLLTKATQRPDPITFVSAFAISFLSIYRDKTRTLRKPFNPLLAETFELIREDMGFRLISEKVSHRPPVFAFFAEHLDWECSYTVTPSQKFWGKSIELNNEGILRLKFKTTGELFEWTQPTTILKNLIAGERYMEPVNEFEVHSSKGDKSHILFDKAGMFSGRSEGFKVSIIPPPSSNRKKETLAGKWTQSLANETTHETIWEVGDLVSNPKKKYGFTKFTANLNEITEIEKGNLPPTDSRLRPDIRAYEEGNVDKAEEWKLKLEQLQRERRNKGQDVEPKYFEKVSKNEWKYITGPKSYWERRKKHDWSDISQLW
With B1 the binding [1] was “binds”, the binding [2] was “binds” and the binding [3] was “no binding”. For the same binder, the binding [4] was “binds” and the binding [5] was “binds”.
